Measurements from PMC4336329 (PLoS ONE, 2015).
Screen size: about 310,000 compounds; about 14,000 (4.5%) showed an effect of 50% or more. Effects have a minus sign here. The list shows a part of the results.

Molecular target: human ether-à-go-go-related gene (hERG) potassium channel (human, UniProt Q12809)
Assay: primary screen, population patch clamp on CHO cells stably expressing hERG
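Further: peak tail current of the secondary pulse compared with the same well before compound.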

Chain of human ether-à-go-go-related gene (hERG) potassium channel (Q12809 whole entry, looked up): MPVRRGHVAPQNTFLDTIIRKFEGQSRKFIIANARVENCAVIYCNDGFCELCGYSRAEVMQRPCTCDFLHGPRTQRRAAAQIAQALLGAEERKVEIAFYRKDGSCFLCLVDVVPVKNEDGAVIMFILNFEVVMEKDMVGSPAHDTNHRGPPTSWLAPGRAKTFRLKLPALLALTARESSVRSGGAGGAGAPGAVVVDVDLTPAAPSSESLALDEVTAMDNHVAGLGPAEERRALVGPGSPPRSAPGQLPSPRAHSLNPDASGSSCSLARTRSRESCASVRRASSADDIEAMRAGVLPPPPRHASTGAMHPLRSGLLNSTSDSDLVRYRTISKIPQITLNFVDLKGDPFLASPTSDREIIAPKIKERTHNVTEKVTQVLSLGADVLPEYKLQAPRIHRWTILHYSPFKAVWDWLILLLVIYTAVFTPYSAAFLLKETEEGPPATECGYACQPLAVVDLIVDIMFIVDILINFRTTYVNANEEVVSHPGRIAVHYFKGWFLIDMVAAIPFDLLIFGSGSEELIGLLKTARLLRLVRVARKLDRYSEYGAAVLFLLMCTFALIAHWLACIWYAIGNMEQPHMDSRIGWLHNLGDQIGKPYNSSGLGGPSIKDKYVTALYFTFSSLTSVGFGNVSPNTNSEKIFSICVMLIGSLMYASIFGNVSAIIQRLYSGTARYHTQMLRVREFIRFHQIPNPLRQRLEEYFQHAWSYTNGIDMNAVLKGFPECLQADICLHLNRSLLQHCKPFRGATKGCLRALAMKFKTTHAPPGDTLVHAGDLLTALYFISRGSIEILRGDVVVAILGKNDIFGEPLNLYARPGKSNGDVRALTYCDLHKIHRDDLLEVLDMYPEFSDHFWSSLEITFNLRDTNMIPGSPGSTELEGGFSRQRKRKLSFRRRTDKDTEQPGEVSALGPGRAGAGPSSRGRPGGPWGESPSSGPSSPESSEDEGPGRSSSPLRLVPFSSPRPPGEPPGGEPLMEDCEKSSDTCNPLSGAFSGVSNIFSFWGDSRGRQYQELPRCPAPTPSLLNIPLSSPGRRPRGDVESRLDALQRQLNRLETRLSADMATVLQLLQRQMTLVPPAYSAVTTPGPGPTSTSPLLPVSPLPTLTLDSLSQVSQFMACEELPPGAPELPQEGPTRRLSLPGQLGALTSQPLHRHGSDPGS

Row | SMILES | hERG current change (%, negative = inhibition) at 10uM [%]
1 | COc1ccc(S(=O)(=O)NC(CC(=O)NCc2ccccc2OC)c2ccco2)cc1 (stereo not drawn) | -23.6
2 | Cc1sc2nc(COC(=O)CNC(=O)c3ccc(C(C)(C)C)cc3)[nH]c(=O)c2c1C | 14
3 | COc1ccc(NC(=O)c2c(C(F)(F)F)nn(C)c2Cl)cc1 | 10.9
4 | O=C(Nc1ccccc1)C1=C[C@H](C2CCCCC2)C[C@H](OCc2ccc(CO)cc2)O1 | 10.3
5 | Cc1ccc(OCCCC(=O)N(C)CC(=O)Nc2ccccc2Cl)cc1 | -7.88
6 | CCSc1nc2c(cnn2-c2ccc(C)c(C)c2)c(=O)[nH]1 | 9.96
7 | Nc1c(C(=O)N/N=C/c2ccc([N+](=O)[O-])cc2)sc2nnc(-c3ccccc3)c(-c3ccccc3)c12 | 12.7
8 | Cc1cc(C(=O)NNS(=O)(=O)c2ccc(F)cc2)nn1C(C)(C)C | 6.38
9 | CCOC(=O)C(NC(=O)c1ccccc1)=C1CCCCC1 | 8.21
10 | O=C(CCCn1cncn1)N1CCCC(N2CCN(c3ccccc3F)CC2)C1 (stereo not drawn) | 2.83
11 | O=C(c1cc(=O)c2ccccc2o1)N1CCCc2ccccc21 | -10.6
12 | O=C(NC1CC1)C1=C[C@@H](c2ccc3c(c2)OCO3)C[C@@H](OCCCCO)O1 | 1.44
13 | CN1C=C(C(F)(F)F)C=C/C1=C(\C#N)c1nnc2n1CCCCC2 | 2.33
14 | Cn1cc(S(=O)(=O)N2CCC(C(N)=O)CC2)c(=O)n(C)c1=O | -1.5
15 | O=C(CNC(=O)c1cccc(OC(F)F)c1)OCc1cc(=O)n2cc(Br)ccc2n1 | -55.2
16 | C#C[C@]1(O)CC[C@H]2[C@@H]3[C@H](C)CC4=C(CCC(=O)C4)[C@H]3CC[C@@]21C | 1.24
17 | Cc1nc(NCCc2ccc(S(N)(=O)=O)cc2)c2c(C)c(C)sc2n1 | 4.01
18 | N#C/C(=C/c1ccccc1[N+](=O)[O-])c1nnc2n1CCCCC2 | 3.08
19 | COc1cc(NC(=O)Cc2ccccc2)ccc1NC(=O)Cc1ccccc1 | 20.9
20 | O=C(COC(=O)Cc1ccc(Cl)cc1)NCc1ccc(F)cc1 | -1.16
21 | COc1ccc(C2CC(c3ccccc3)=NN2C(=O)c2ccc(Cl)c([N+](=O)[O-])c2)cc1 (stereo not drawn) | 7.73
22 | CC(=O)Nc1cc(-c2ccc(Cl)cc2)[nH]n1 | 4.9

Row | SMILES | hERG current change (%, negative = inhibition) at 10uM [%]
23 | COc1cc(/C=C(\C#N)c2nc3c(s2)CC(C)CC3)ccc1O (stereo not drawn) | 10.1
24 | CN(C)CCn1cnc2ccccc21.Cl | 10.1
25 | CN1C(=O)N(C)C(=O)C2(Cc3cc([N+](=O)[O-])ccc3N3CCN(C(=O)c4ccccc4)CC32)C1=O (stereo not drawn) | -65
26 | Cc1cccc(CSc2[nH]c(=O)ncc2C)c1 | 16.8
27 | N#Cc1ccc(-c2ccc(F)cc2)nc1Oc1ccc(Cl)c(Cl)c1 | 21.8
28 | CCCCCCNS(=O)(=O)c1ccccc1Br | -19.2
29 | COc1cccc(-c2csc(N3CCN(C(=S)Nc4ccccc4C)CC3)n2)c1 | 23.7
30 | COc1ccc(N(C)S(=O)(=O)c2cccc(C(=O)NC3CCCCCC3)c2)cc1 | -26
31 | O=C(Nc1ccccc1C(=O)O)c1ccc(CN2C(=O)c3ccccc3C2=O)cc1 | 2.33
32 | COc1ccc2[nH]c(=O)c(CN(CCO)S(=O)(=O)c3c(C)ccc4nsnc34)cc2c1 | -3.86
33 | COC(=O)[C@@H](Cc1ccccc1)NC(=O)NCCc1c[nH]c2ccccc12 | 23
34 | CCOc1ccc(NC(=O)C2C(c3ccccc3)C2(Cl)Cl)cc1 (stereo not drawn) | 16.9
35 | NS(=O)(=O)c1ccc(NC(=O)COC(=O)c2ccc(Cl)nc2)cc1 | -20
36 | CC(=O)Nc1ccc(NC(=O)CCN2C(=O)c3ccccc3C2=O)cc1 | 7.22
37 | CCC(C)c1ccc(NC(=O)COC(=O)CCNC(=O)c2ccco2)cc1 (stereo not drawn) | -18.6
38 | CCn1cc(CN2CCC(n3nccc3NC(=O)c3ccccc3OC)CC2)cn1 | -71.4
39 | Cc1ccc(NC(=O)CCN2C(=O)c3ccccc3C2=O)cc1 | 15.4
40 | Cc1ccc(C(=O)NC(=S)NCCCN2CCOCC2)cc1 | -7.43
41 | CCOC(=O)c1cccc(NC(=O)CCc2ccccc2)c1 | -12.6
42 | COc1ccc(CCNC(=O)Cn2c([N+](=O)[O-])cnc2C)cc1OC | 0.11
43 | Cc1nnc(NC(=O)c2cccc(F)c2)s1 | 4.08
44 | N#CCNC(=O)c1nn2c(C(F)(F)F)cc(-c3ccccc3)nc2c1Br | 17.5

Row | SMILES | hERG current change (%, negative = inhibition) at 10uM [%]
45 | O=C(Nc1ccccc1C(=O)N1CCCC1)C1CCN(c2ncccn2)CC1 | -2.79
46 | Cc1nc2c(=O)n(C)c(=O)[nH]c2n1Cc1ccccc1 | -0.924
47 | Cn1c(NC(=O)Cc2cccc3ccccc23)cc(=O)n(C)c1=O | 8.1
48 | O=C(COC(=O)c1cc(=O)[nH]c2ccccc12)Nc1ccc(Cl)cn1 | 6.92
49 | O=C(O)C/C(=C\c1ccc(Cl)cc1)c1nc2ccccc2o1 | 6.78
50 | S=c1nc(Cc2ccccc2)[nH]c2ccccc12 | 18.6
51 | CCS(=O)(=O)c1ccc(O)c(N2C(=O)C3C4C=CC(C4)C3C2=O)c1 (stereo not drawn) | 6.35
52 | Cc1c(NC(=O)C(C)OC(=O)/C=C/c2ccc3c(c2)OCO3)c(=O)n(-c2ccccc2)n1C (stereo not drawn) | -0.675
53 | CC1(c2ccc(OC(F)F)cc2)NC(=O)N(CC(=O)Nc2cccnc2Cl)C1=O (stereo not drawn) | -38.6
54 | CC(C)(C)c1cc[n+](-c2[nH]c(=O)sc2/C=N/NC([S-])=Nc2ccccc2)cc1 | -17
55 | CCOC(=O)N1CCN(C(=O)CNS(=O)(=O)c2cccs2)CC1 | -10.5
56 | COc1cccc(NC(=O)C(=O)NCc2ccncc2)c1 | 19.7
57 | COCCCNC(=O)CCc1nc2cccnc2n1Cc1ccc(OC)cc1 | 10.8
58 | N#Cc1ccc(CSc2nnc(-c3c[nH]c4ccccc34)n2-c2ccccc2)cc1 | 5.38
59 | COC(=O)c1cn(-c2ccccc2)c(=O)c2ccccc12 | -2.04
60 | CCN(Cc1ccccc1)C(=O)CN1C(=O)NC(CC)(c2ccc(F)cc2)C1=O (stereo not drawn) | -7.55
61 | COc1ccc(/C=N/NC(=O)c2cccc(NC(=O)c3ccccc3Cl)c2)cc1OC | -3.89
62 | CCOC(=O)c1ccc(NC(=O)C2(c3ccc(Cl)cc3)CCCC2)cc1 | 2.55
63 | COc1cccc(C(=O)COC(=O)c2n[nH]c(=O)c3ccccc23)c1 | 9.65
64 | COc1ccc(-c2cnnn2-c2ccc(N)cc2)cc1OC | -10.7
65 | CCOC(=O)C1=C(C)N(C)C(=O)NC1c1cccc([N+](=O)[O-])c1 (stereo not drawn) | -8.48
66 | O=C(N/N=C\c1cc(Br)cs1)C1COc2ccccc2O1 (stereo not drawn) | 18.9

Row | SMILES | hERG current change (%, negative = inhibition) at 10uM [%]
67 | O=c1oc2cc([N+](=O)[O-])ccc2nc1/C=C(O)/C=C/c1ccccc1 | 16.2
68 | CC(C)C[C@]1(c2ccccc2)ON(c2ccccc2C(F)(F)F)C1=O | 8.4
69 | CSCCOC(=O)C1=C(C)NC(=O)CC1c1ccccc1Cl (stereo not drawn) | -27.5
70 | O=C(NC1CC1)C1=C[C@H](c2c[nH]c3ccccc23)C[C@H](OCCCCO)O1 | 6.67
71 | Cc1ccc(S(=O)(=O)c2cc3c(=O)n4ccccc4nc3n(C)c2=N)cc1 | 2.04
72 | CC(=O)Nc1ccc(NC(=S)Nc2ccc(F)cc2)cc1 | 15.9
73 | Cc1ccc(NC(=O)C(=O)NCc2ccccn2)cc1 | 25.5
74 | c1ccc(-c2nc3ccccn3c2NCc2ccc3c(c2)OCO3)cc1 | -36.1
75 | CC(=O)Nc1sc(NC(=O)c2ccc(C)cc2)nc1-c1cccs1 | 14.7
76 | COc1ccc(C2CC(=O)C(C=NCCCN3CCOCC3)=C(O)C2)cc1 (stereo not drawn) | 27.7
77 | Cc1c(N=C2N=C(NC(=O)NC(C)(C)C)c3ccccc32)c(=O)n(-c2ccccc2)n1C | 27
78 | CC(C)(COC(=O)Nc1ccccc1)COC(=O)Nc1ccccc1 | -9.22
79 | Cc1cccc(CSCc2ccc(C(=O)O)o2)c1 | 16.5
80 | C/C(=N\NC(=O)CNC(=O)C1COc2ccccc2O1)c1ccco1 (stereo not drawn) | -41.3
81 | Cc1cc(C(=O)CSc2nnnn2C)c(C)n1CCc1ccc(Cl)cc1 | -1.64
82 | Cc1c(/C=N/O)c2ccccn2c1C(=O)c1ccc(F)cc1 | 4.47
83 | Cc1cc(C)c2nc(NC(=O)c3ccc([N+](=O)[O-])o3)sc2c1 | 33.3
84 | CCC(=O)N/N=C/c1ccc(-c2ccc(Cl)cc2)o1 | 3.47
85 | COc1cccc(C=Nc2ccc(N3CCOCC3)cc2)c1O | 17.9
86 | c1csc(C(c2nnnn2C2CCCC2)N2CCCC3(CCCCC3)C2)c1 (stereo not drawn) | 3.5
87 | CS(=O)(=O)N1CCC(C(=O)Nc2ccc(F)cc2)CC1 | 13.5
